Assay results as given in patent US20250019461A1, “HER3 ANTIGEN-BINDING MOLECULES” (Hummingbird Bioscience Pte. Ltd., priority 2018, published 2025).

Columns and labels:
human EGFR = target: T1, human EGFR (Homo sapiens, UniProt P00533); test: ELISA for antibody specificity and cross-reactivity; type: binding; settings: antibody up to 10 μg/ml
T1 construct: purchased Sino Biological Inc., China
Experimental: (§1) ELISAs were used to determine the binding specificity of the antibodies. The antibodies were analysed for binding to human HER3 polypeptide, as well as respective mouse, rat and monkey homologues of HER3 (Sino Biological Inc., China). The antibodies were also analysed for their ability to bind to human EGFR and human HER2 (Sino Biological Inc., China).
(§2) ELISAs were carried out according to standard protocols. Briefly, 96-well plates (Nunc, Denmark) were coated with 0.1 μg/ml of target polypeptide in phosphate-buffered saline (PBS) for 16 h at 4° C. After blocking for 1 h with 1% BSA in Tris buffer saline (TBS) at room temperature, the anti-HER3 antibody was serially diluted with the highest concentration being 10 μg/ml, and added to the plate. Post 1 h incubation at room temperature, plates were washed three times with TBS containing 0.05% Tween 20 (TBS-T) and were then incubated with a HRP-conjugated anti-His antibody (Life Technologies, Inc., USA) for 1 h at room temperature. […] The reaction was stopped with 2M H2SO4, and OD was measured at 450 nm.
(§3) The antibodies were analysed for their ability to bind to human HER3 polypeptide as well as human HER1 (EGFR) and human HER2 (Sino Biological Inc., China). […]
(§4) ELISAs were carried out according to standard protocols. […] The reaction was stopped with 2M H2SO4, and OD was measured at 450 nm.

human HER2 = target: T2, human HER2 (Homo sapiens, UniProt P04626); test: as above; type: binding; settings: antibody up to 10 μg/ml
T2 construct: purchased Sino Biological Inc., China
Experimental: as §1, §2, §3, §4

mouse HER3 = target: T3, mouse HER3 (Mus musculus, UniProt Q61526); test: as above; type: binding; settings: antibody up to 10 μg/ml
T3 construct: purchased Sino Biological Inc., China
Experimental: as §1
(§5) ELISAs were carried out according to standard protocols. Briefly, 96-well plates (Nunc, Denmark) were coated with 0.1 μg/ml of target polypeptide in phosphate-buffered saline (PBS) for 16 h at 4° C. After blocking for 1 h with 1% BSA in Tris buffer saline (TBS) at room temperature, the anti-HER3 antibody was serially diluted with the highest concentration being 10 μg/ml, and added to the plate. Post 1 h incubation at room temperature, plates were washed three times with TBS containing 0.05% Tween 20 (TBS-T) and were then incubated with a HRP-conjugated anti-His antibody (Life Technologies, Inc., USA) for 1 h at room temperature. After washing, plates were developed with colorimetric detection substrate 3,3′,5,5′-tetramethylbenzidine (Turbo-TMB; Pierce, USA) for 10 min. The reaction was stopped with 2M H2SO4, and OD was measured at 450 nm.
(§6) M. musculus, R. norvegicus and M. cynomolgus HER3 homologues share 91.1, 91.0 and 98.9% sequence identity respectively with human HER3 and the HER3 signalling pathways are conserved between the four species.
(§7) ELISAs were performed as above.

cynomolgus macaque HER3 = test: as above; type: binding; settings: antibody up to 10 μg/ml
Experimental: as §1, §5, §6, §7

rat HER3 = target: T4, rat HER3 (Rattus norvegicus, UniProt Q62799); test: as above; type: binding; settings: antibody up to 10 μg/ml
T4 construct: purchased Sino Biological Inc., China
Experimental: as §1, §5, §6, §7

A549 cells = test: A549 cell-line derived mouse model of lung adenocarcinoma; type: in vivo; settings: NPG mice; IP weekly 500 μg per dose, 4 doses
Experimental: Female NCr nude mice approximately 6-8 weeks old were purchased from InVivos (Singapore). Animals were housed under specific pathogen-free conditions and were treated in compliance with the Institutional Animal Care and Use Committee (IACUC) guidelines.
Tumor volumes were measured 3 times a week using a digital caliper and calculated using the formula [L×W2/2]. Study End point was considered to have been reaches once the tumors of the control arm measured >1.5 cm in length.
The model was established by subcutaneous injection of 1×10^6 A549 cells into the right flanks of female NCr nude mice (n=6 mice per treatment group).
Anti-HER3 antibody clone 4-35-B2 was administered IP weekly at a dose of 500 μg per dose (total of 4 doses). A control treatment group received an equal volume of PBS (6 mice per treatment group).
Tumour cells were inserted subcutaneously into the right flanks of female NCr nude mice.

T3 sequence (Q61526 20-1339): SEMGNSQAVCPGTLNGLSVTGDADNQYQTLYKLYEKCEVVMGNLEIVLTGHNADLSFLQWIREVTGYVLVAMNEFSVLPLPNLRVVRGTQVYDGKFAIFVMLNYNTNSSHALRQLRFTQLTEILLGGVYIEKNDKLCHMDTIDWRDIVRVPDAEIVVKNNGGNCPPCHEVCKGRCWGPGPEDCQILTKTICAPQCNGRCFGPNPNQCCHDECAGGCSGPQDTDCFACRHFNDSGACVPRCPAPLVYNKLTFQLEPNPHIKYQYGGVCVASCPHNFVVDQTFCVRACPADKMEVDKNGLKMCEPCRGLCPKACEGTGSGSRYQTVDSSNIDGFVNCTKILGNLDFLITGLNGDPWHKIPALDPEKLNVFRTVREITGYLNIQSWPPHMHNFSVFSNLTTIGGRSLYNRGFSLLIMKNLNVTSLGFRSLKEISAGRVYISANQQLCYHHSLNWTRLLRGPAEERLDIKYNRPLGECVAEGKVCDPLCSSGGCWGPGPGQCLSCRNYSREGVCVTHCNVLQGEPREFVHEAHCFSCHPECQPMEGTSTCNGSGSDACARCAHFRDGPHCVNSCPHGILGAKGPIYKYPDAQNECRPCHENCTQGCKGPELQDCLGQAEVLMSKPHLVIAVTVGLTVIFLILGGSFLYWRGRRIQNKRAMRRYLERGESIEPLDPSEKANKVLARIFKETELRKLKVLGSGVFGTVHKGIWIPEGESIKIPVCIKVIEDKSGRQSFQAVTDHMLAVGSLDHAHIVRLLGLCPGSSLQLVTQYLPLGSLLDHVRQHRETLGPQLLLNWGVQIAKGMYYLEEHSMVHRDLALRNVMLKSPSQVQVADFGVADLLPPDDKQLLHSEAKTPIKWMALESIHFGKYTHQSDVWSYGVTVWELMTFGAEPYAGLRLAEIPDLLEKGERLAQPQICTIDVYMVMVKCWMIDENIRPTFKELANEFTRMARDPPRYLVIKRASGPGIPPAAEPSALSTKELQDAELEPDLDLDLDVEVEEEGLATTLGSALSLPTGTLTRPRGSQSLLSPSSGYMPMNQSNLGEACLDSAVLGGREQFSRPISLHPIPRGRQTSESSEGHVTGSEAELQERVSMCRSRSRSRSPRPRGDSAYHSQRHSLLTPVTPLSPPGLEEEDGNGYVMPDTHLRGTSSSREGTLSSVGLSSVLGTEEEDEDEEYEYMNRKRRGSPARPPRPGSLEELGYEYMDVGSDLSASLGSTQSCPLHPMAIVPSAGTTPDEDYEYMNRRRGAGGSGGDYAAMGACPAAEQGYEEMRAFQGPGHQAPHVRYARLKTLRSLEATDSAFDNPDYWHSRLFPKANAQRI
T4 sequence (Q62799 20-1339): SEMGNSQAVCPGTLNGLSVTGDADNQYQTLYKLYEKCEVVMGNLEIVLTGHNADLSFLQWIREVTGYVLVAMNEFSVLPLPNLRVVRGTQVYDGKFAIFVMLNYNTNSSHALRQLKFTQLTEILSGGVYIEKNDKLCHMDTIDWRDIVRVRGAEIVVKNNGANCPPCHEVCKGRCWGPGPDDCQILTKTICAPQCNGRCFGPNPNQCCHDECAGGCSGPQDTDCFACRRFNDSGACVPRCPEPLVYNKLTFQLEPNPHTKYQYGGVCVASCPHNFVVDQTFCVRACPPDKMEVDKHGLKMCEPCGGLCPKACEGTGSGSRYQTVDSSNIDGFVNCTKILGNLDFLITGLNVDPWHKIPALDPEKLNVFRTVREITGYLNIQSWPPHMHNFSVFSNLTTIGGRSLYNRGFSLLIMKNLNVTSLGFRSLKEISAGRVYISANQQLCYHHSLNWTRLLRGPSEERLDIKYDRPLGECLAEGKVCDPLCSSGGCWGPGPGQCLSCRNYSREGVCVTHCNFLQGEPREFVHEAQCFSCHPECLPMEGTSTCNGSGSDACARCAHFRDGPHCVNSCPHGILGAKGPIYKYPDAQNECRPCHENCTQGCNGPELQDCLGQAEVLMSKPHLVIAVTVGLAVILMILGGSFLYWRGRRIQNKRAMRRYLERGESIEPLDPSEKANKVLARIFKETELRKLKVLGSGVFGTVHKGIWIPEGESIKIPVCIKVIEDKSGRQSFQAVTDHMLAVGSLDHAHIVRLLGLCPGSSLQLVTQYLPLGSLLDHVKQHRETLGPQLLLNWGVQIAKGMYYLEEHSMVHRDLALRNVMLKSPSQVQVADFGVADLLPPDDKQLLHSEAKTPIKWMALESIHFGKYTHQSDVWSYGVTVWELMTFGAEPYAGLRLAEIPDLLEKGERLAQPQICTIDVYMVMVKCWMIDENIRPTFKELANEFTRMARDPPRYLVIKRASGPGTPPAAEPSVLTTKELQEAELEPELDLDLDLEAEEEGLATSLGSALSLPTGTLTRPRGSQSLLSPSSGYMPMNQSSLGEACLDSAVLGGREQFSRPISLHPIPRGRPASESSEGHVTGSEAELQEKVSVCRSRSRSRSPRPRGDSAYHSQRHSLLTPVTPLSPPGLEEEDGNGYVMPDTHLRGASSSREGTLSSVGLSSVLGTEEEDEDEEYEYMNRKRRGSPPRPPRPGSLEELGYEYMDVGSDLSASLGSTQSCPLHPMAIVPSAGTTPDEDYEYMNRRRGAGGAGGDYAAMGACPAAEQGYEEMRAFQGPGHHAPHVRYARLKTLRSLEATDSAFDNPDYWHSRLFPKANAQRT

binding to human EGFR (HER1) (human EGFR): found to bind | binding to human HER2 (human HER2): found to bind | binding to / cross-reactivity with mouse HER3 (mouse HER3): substantial cross-reactivity | binding to / cross-reactivity with cynomolgus macaque HER3 (cynomolgus macaque HER3): substantial cross-reactivity | binding to / cross-reactivity with rat HER3 (rat HER3): substantial cross-reactivity
B1: 4-35-B2: anti-HER3 clone 4-35-B2 IgG1; polypeptides SEQ ID NO:218 + 219 (antibody)
heavy: EIQLQQSGPELVKPGASVKVSCKASGYSFTDYNMYWVKQSHGKSLEWIGHINPYNGGTTYNQKFKGRATLTVDKSSSTAFMHLNSLTSEDSAVYFCVSLRWGAMDYWGQGTSVTVSS[human IgG1 constant region left out]
light: QIVLTQSPALMSASPGEKVTMTCSASSSVSYMYWYQQKPRSSPKPWIYLTSNLASGVPARFSGSGSGTSYSLTISSMEAEDAATYYCQQWNSNPYTFGGGTKLEIKRTVAAPSVFIFPPSDEQLKSGTASVVCLLNNFYPREAKVQWKVDNALQSGNSQESVTEQDSKDSTYSLSSTLTLSKADYEKHKVYACEVTHQGLSSPVTKSFNRGEC
modifications: 4-35-B2 VH-CH1-CH2-CH3; 4-35-B2 VL-Ckappa
inhibition of tumor growth (A549 cells): ~63%
